# The supplement of paper PMC8728848
# This is one part of the list.
# Key:
# Assay in all cases: glycan array binding signal (z-score within array); higher = stronger binding
# Conditions in all cases: glycan notation: IUPAC condensed, linker removed
# [1] = biological target: Gal3S(b1-4)Glc
# Procedure, shortened: (§1)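 Columns mapping to the same glycan were averaged after glycan names were converted to IUPAC-condensed notation. The data come from 3228 arrays in the Consortium for Functional Glycomics database, limited to those with an available protein sequence. Binding is reported as a within-array Z-score averaged across arrays of one protein sequence and across linkers.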
# [2] = biological target: Gal3S(b1-4)Glc6S
# Procedure, shortened: as §1
# [3] = biological target: Gal3S(b1-4)GlcNAc
# Procedure, shortened: as §1
# [4] = biological target: Gal3S(b1-4)[Fuc(a1-3)]Glc6S
# Procedure, shortened: as §1
# [5] = biological target: Gal3S(b1-4)[Fuc(a1-3)]GlcNAc
# Procedure, shortened: as §1
# [6] = biological target: Gal3S(b1-4)[Fuc(a1-3)]GlcNAc6S
# Procedure, shortened: as §1
# [7] = biological target: Gal3S4S(b1-4)GlcNAc
# Procedure, shortened: as §1
# [8] = biological target: Gal3S6S(b1-4)GlcNAc
# Procedure, shortened: as §1
# [9] = biological target: Gal3S6S(b1-4)GlcNAc6S
# Procedure, shortened: as §1
# [10] = biological target: Gal4S(b1-4)GlcNAc
# Procedure, shortened: as §1
# [11] = biological target: Gal4S6S(b1-4)GlcNAc
# Procedure, shortened: as §1
# [12] = biological target: Gal6P(b1-4)GlcNAc
# Procedure, shortened: as §1
# [13] = biological target: Gal6S(b1-3)GlcNAc
# Procedure, shortened: as §1
# [14] = biological target: Gal6S(b1-3)GlcNAc6S
# Procedure, shortened: as §1
# [15] = biological target: Gal6S(b1-4)Glc
# Procedure, shortened: as §1
# [16] = biological target: Gal6S(b1-4)Glc6S
# Procedure, shortened: as §1
# [17] = biological target: Gal6S(b1-4)GlcNAc
# Procedure, shortened: as §1
# [18] = biological target: Gal6S(b1-4)GlcNAc6S
# Procedure, shortened: as §1
# [19] = biological target: GalNAc(a1-3)Gal
# Procedure, shortened: as §1
# [20] = biological target: GalNAc(a1-3)GalNAc
# Procedure, shortened: as §1
# [21] = biological target: GalNAc(a1-3)GalNAc(b1-3)Gal(a1-4)Gal(b1-4)Glc
# Procedure, shortened: as §1
# [22] = biological target: GalNAc(a1-3)GalNAc(b1-3)Gal(a1-4)Gal(b1-4)GlcNAc
# Procedure, shortened: as §1
# [23] = biological target: GalNAc(b1-3)Gal
# Procedure, shortened: as §1
# [24] = biological target: GalNAc(b1-3)Gal(a1-4)Gal(b1-4)GlcNAc
# Procedure, shortened: as §1
# [25] = biological target: GalNAc(b1-3)Gal(a1-4)Gal(b1-4)GlcNAc(b1-3)Gal(b1-4)Glc
# Procedure, shortened: as §1
# [26] = biological target: GalNAc(b1-3)Gal(a1-6)Gal(b1-4)Glc
# Procedure, shortened: as §1
# [27] = biological target: GalNAc(b1-3)GalNAc
# Procedure, shortened: as §1
# [28] = biological target: GalNAc(b1-3)GlcNAc
# Procedure, shortened: as §1
# [29] = biological target: GalNAc(b1-4)Gal(b1-4)Glc
# Procedure, shortened: as §1
# [30] = biological target: GalNAc(b1-4)GlcNAc
# Procedure, shortened: as §1
# [31] = biological target: GalNAc(b1-4)GlcNAc(b1-2)Man
# Procedure, shortened: as §1
# [32] = biological target: GalNAc(b1-4)GlcNAc(b1-2)Man(a1-3)[GalNAc(b1-4)GlcNAc(b1-2)Man(a1-6)]Man(b1-4)GlcNAc(b1-4)GlcNAc
# Procedure, shortened: as §1
# [33] = biological target: GalNAc(b1-4)GlcNAc(b1-3)GalNAc(b1-4)GlcNAc
# Procedure, shortened: as §1
# [34] = biological target: GalNAc(b1-4)GlcNAc6S
# Procedure, shortened: as §1
# [35] = biological target: GalNAc(b1-6)GalNAc
# Procedure, shortened: as §1
# [36] = biological target: GalNAc3S(b1-4)GlcNAc
# Procedure, shortened: as §1
# [37] = biological target: GalNAc3S(b1-4)GlcNAc3S
# Procedure, shortened: as §1
binder,measurement,setting,value
Cohesin-hMARCO (Homo sapiens) (protein) LDDLDAVRIKVDTVNAKPGDTVRIPVRFSGIPSKGIANCDFVYSYDPNVLEIIEIEPGDIIVDPNPDKSFDTAVYPDRKIIVFLFAEDSGTGAYAITKDGVFATIVAKVKEGAPNGLSVIKFVEVGGFANNDLVEQKTQFFDGGANVGDTTEPATPTTPVTTPTTTDDLDAASVRIVGSSNRGRAEVYYSGTWGTICDDEWQNSDAIVFCRMLGYSKGRALYKVGAGTGQIWLDNVQCRGTESTLWSCTKNSWGHHDCSHEEDAGVECSVHHHHHH,glycan array binding signal (z-score),[1],3.03
same,glycan array binding signal (z-score),[2],1.61
same,glycan array binding signal (z-score),[3],0.683
same,glycan array binding signal (z-score),[4],0.121
same,glycan array binding signal (z-score),[5],-0.386
same,glycan array binding signal (z-score),[6],3.73
same,glycan array binding signal (z-score),[7],-0.103
same,glycan array binding signal (z-score),[8],1.16
same,glycan array binding signal (z-score),[9],0.981
same,glycan array binding signal (z-score),[10],-0.154
same,glycan array binding signal (z-score),[11],-0.129
same,glycan array binding signal (z-score),[12],-0.306
same,glycan array binding signal (z-score),[13],-0.45
same,glycan array binding signal (z-score),[14],1.09
same,glycan array binding signal (z-score),[15],0.146
same,glycan array binding signal (z-score),[16],0.346
same,glycan array binding signal (z-score),[17],-0.215
same,glycan array binding signal (z-score),[18],0.105
same,glycan array binding signal (z-score),[19],1.03
same,glycan array binding signal (z-score),[20],0.678
same,glycan array binding signal (z-score),[21],-0.264
same,glycan array binding signal (z-score),[22],-0.272
same,glycan array binding signal (z-score),[23],3.14
same,glycan array binding signal (z-score),[24],0.792
same,glycan array binding signal (z-score),[25],0.383
same,glycan array binding signal (z-score),[26],1.8
same,glycan array binding signal (z-score),[27],0.247
same,glycan array binding signal (z-score),[28],0.466
same,glycan array binding signal (z-score),[29],-0.13
same,glycan array binding signal (z-score),[30],0.286
same,glycan array binding signal (z-score),[31],1.08
same,glycan array binding signal (z-score),[32],-0.251
same,glycan array binding signal (z-score),[33],0.209
same,glycan array binding signal (z-score),[34],-0.101
same,glycan array binding signal (z-score),[35],-0.405
same,glycan array binding signal (z-score),[36],-0.538
same,glycan array binding signal (z-score),[37],-0.315
